Like-named read-outs stand apart in the source and are kept apart here.
Columns and labels:
ENBOV (Ebola) in HeLa = assay type: cell-based, Ebola virus
ENBOV (Ebola) in HFF = assay type: cell-based, Ebola virus
Zika in Vero = assay type: cell-based, Zika virus
TC83 in HeLa = assay type: cell-based, Venezuelan Equine Encephalitis (TC83) virus
TC83 in BE3M27 = assay type: cell-based, Venezuelan Equine Encephalitis (TC83) virus
TC83 in U87MG = assay type: cell-based, Venezuelan Equine Encephalitis (TC83) virus
CHIV (181/25) in U205 = assay type: cell-based, Chikungunya virus
[1] = system: Zika DAKAR, Senegal in Vero; test: Viral inhibition; assay type: cell-based, Zika virus
[2] = system: Zika DAKAR, Senegal in HFF; test: Viral inhibition; assay type: cell-based, Zika virus

“SBT-100: 15 kDa camelid single domain antibody (VHH), SEQ ID NO: 1, binds both STAT3 and KRAS” was tested, and the “Max % Inhibition” value (ENBOV (Ebola) in HeLa; HeLa, ENBOV (Ebola)) was 97%, the “Max % Inhibition” value (ENBOV (Ebola) in HFF; HFF, ENBOV (Ebola)) was 95% and the “Max % Inhibition” value (Zika in Vero) was 96%. The “Max % Inhibition” value (TC83 in HeLa) was 96%, the “Max % Inhibition” value (TC83 in BE3M27) was 97% and the “Max % Inhibition” value (TC83 in U87MG) was 96%. The Comment (CHIV (181/25) in U205) was “Inhibits Chickungunya (CHIV”, the EC50 (CHIV (181/25) in U205) was 5.05 µM and the “Max % Inhibition” value (CHIV (181/25) in U205) was 99%. The “Max % Inhibition” value [1] was 98% and the “Max % Inhibition” value [2] was 98%.

B1: SBT-106 (protein)
VHH: EVQLVESGGGSVQAGGSLRLSCAASVYSYNTNCMGWFRQAPGKEREGVAVIYAAGGLTYYADSVKGRFTISQENGKNTVYLTMNRLKPEDTAMYYCAAKRWCSSWNRGEEYNYWGQGTQVTVSS
In the case of B1, the “Max % Inhibition” value (ENBOV (Ebola) in HeLa) is reported as 45%, the “Max % Inhibition” value (ENBOV (Ebola) in HFF) is reported as “No” and the “Max % Inhibition” value (Zika in Vero) is reported as “No”.
